Test results taken from publication PMC6728388.
No constants are given. Whether binding was seen depends on the method and setting. In cells and extracts the contact can be indirect. Some entries that bind do so weakly or less than the wild type. For part of these data: Sequences can lack the tags named with a protein.

By UniProt entry, the sequences of proteins in these tests, tags left out. Where a name states a change or a piece, a line headed by the entry shows the natural chain unless it says otherwise. Chains listed by the source or under a name are the forms on record and can include a tag or linker. Residues count along the entry.
UniProt Q3TN34: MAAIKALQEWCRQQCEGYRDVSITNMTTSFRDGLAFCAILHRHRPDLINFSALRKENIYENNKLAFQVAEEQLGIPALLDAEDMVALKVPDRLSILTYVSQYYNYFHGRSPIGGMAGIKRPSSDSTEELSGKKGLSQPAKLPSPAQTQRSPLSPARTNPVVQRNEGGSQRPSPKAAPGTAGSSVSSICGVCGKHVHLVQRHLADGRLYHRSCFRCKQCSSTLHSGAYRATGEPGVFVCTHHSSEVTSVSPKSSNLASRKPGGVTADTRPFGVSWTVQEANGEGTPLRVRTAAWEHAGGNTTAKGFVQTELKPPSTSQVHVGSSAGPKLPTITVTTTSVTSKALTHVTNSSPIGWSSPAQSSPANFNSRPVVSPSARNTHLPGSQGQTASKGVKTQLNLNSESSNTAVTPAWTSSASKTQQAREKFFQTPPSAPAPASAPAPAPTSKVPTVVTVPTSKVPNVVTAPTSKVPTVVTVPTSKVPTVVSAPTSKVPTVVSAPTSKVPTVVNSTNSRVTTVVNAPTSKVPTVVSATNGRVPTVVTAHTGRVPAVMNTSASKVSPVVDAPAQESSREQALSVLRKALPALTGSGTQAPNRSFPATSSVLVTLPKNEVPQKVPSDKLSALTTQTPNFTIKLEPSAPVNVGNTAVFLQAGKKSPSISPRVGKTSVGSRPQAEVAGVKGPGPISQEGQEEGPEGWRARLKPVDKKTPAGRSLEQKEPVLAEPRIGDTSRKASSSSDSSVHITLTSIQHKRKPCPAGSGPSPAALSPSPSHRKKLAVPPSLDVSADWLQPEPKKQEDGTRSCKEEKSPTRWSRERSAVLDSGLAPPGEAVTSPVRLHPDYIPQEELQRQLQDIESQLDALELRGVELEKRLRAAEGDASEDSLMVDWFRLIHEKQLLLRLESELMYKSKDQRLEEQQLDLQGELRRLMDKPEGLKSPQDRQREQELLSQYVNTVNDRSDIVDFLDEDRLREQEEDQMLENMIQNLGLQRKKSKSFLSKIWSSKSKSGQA
GST-JRAB-CH + LIM: residues 1-260 of Q3TN34
GST-JRAB-C (aa 806–1009): residues 806-1009 of Q3TN34
GFP-JRAB-C (M884K/W887K) (Q3TN34, form named): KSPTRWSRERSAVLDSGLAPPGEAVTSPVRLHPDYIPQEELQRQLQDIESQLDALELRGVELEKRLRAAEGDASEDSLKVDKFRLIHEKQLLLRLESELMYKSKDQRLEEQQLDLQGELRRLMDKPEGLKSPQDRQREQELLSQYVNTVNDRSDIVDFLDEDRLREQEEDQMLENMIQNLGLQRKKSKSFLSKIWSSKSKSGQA
GFP-JRAB-C (Q895K/L898K) (Q3TN34, form named): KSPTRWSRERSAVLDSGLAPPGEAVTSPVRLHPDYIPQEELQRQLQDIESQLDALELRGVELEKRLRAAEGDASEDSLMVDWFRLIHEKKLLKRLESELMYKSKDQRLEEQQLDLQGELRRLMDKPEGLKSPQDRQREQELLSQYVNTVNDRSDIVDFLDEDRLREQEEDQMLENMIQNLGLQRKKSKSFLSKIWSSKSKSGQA
GFP-JRAB-CH + LIM (L197E/V198E/R200E) (Q3TN34, form named): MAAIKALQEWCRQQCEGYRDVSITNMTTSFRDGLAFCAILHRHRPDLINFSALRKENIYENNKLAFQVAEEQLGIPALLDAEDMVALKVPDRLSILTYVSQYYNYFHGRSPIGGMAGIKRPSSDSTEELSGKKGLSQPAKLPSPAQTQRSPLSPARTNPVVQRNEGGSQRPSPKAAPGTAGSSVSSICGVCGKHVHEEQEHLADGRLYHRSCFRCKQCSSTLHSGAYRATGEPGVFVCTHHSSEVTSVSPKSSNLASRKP
GFP-JRAB-CH + LIM (S224E/R228E) (Q3TN34, form named): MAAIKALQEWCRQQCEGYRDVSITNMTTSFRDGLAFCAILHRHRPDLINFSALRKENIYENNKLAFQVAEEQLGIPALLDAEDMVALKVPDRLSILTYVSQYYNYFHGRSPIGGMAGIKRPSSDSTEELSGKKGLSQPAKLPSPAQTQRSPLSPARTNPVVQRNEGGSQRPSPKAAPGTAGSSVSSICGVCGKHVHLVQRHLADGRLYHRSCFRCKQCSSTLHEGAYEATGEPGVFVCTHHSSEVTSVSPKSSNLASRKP
GFP-JRAB-CH + LIMΔZF1 (aa 1–185 + 213–260) (Q3TN34, form named): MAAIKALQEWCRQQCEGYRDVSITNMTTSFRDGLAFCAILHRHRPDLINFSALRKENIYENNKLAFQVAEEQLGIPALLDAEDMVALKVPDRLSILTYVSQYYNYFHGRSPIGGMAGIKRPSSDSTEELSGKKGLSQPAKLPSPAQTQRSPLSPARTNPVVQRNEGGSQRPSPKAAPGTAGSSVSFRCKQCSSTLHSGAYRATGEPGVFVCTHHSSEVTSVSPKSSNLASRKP
GFP-JRAB-CH + LIMΔZF2 (aa 1–213 + 242–260) (Q3TN34, form named): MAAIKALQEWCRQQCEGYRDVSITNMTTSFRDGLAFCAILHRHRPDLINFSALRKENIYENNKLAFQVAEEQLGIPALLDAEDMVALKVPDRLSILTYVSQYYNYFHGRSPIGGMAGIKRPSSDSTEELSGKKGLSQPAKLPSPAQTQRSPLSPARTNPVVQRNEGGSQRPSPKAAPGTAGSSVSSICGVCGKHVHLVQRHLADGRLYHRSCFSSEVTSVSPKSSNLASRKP
GFP-JRABΔCC (Q3TN34, form named): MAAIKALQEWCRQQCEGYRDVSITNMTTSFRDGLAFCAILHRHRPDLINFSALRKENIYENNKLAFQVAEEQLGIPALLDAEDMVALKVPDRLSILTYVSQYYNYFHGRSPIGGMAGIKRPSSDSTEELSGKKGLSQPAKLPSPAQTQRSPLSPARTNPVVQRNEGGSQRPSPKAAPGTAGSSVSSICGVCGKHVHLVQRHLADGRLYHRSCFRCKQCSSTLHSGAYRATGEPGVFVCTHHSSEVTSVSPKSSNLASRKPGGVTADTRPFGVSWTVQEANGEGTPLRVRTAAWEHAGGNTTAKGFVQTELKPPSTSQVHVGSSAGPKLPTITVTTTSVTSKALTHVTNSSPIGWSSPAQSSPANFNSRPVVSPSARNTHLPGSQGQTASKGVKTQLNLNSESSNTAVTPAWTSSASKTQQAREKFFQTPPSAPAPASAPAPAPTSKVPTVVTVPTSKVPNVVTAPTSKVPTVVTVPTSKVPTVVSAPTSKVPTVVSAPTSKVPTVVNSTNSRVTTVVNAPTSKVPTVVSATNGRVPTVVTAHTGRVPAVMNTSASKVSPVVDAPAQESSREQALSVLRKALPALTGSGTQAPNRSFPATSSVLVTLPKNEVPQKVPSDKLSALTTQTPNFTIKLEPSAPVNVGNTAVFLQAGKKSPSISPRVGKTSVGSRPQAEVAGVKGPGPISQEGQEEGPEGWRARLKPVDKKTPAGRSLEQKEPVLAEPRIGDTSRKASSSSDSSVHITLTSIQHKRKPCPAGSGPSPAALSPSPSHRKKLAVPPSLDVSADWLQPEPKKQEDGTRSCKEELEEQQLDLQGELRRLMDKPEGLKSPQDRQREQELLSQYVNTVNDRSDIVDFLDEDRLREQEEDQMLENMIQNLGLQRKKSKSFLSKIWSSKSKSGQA
UniProt P21333: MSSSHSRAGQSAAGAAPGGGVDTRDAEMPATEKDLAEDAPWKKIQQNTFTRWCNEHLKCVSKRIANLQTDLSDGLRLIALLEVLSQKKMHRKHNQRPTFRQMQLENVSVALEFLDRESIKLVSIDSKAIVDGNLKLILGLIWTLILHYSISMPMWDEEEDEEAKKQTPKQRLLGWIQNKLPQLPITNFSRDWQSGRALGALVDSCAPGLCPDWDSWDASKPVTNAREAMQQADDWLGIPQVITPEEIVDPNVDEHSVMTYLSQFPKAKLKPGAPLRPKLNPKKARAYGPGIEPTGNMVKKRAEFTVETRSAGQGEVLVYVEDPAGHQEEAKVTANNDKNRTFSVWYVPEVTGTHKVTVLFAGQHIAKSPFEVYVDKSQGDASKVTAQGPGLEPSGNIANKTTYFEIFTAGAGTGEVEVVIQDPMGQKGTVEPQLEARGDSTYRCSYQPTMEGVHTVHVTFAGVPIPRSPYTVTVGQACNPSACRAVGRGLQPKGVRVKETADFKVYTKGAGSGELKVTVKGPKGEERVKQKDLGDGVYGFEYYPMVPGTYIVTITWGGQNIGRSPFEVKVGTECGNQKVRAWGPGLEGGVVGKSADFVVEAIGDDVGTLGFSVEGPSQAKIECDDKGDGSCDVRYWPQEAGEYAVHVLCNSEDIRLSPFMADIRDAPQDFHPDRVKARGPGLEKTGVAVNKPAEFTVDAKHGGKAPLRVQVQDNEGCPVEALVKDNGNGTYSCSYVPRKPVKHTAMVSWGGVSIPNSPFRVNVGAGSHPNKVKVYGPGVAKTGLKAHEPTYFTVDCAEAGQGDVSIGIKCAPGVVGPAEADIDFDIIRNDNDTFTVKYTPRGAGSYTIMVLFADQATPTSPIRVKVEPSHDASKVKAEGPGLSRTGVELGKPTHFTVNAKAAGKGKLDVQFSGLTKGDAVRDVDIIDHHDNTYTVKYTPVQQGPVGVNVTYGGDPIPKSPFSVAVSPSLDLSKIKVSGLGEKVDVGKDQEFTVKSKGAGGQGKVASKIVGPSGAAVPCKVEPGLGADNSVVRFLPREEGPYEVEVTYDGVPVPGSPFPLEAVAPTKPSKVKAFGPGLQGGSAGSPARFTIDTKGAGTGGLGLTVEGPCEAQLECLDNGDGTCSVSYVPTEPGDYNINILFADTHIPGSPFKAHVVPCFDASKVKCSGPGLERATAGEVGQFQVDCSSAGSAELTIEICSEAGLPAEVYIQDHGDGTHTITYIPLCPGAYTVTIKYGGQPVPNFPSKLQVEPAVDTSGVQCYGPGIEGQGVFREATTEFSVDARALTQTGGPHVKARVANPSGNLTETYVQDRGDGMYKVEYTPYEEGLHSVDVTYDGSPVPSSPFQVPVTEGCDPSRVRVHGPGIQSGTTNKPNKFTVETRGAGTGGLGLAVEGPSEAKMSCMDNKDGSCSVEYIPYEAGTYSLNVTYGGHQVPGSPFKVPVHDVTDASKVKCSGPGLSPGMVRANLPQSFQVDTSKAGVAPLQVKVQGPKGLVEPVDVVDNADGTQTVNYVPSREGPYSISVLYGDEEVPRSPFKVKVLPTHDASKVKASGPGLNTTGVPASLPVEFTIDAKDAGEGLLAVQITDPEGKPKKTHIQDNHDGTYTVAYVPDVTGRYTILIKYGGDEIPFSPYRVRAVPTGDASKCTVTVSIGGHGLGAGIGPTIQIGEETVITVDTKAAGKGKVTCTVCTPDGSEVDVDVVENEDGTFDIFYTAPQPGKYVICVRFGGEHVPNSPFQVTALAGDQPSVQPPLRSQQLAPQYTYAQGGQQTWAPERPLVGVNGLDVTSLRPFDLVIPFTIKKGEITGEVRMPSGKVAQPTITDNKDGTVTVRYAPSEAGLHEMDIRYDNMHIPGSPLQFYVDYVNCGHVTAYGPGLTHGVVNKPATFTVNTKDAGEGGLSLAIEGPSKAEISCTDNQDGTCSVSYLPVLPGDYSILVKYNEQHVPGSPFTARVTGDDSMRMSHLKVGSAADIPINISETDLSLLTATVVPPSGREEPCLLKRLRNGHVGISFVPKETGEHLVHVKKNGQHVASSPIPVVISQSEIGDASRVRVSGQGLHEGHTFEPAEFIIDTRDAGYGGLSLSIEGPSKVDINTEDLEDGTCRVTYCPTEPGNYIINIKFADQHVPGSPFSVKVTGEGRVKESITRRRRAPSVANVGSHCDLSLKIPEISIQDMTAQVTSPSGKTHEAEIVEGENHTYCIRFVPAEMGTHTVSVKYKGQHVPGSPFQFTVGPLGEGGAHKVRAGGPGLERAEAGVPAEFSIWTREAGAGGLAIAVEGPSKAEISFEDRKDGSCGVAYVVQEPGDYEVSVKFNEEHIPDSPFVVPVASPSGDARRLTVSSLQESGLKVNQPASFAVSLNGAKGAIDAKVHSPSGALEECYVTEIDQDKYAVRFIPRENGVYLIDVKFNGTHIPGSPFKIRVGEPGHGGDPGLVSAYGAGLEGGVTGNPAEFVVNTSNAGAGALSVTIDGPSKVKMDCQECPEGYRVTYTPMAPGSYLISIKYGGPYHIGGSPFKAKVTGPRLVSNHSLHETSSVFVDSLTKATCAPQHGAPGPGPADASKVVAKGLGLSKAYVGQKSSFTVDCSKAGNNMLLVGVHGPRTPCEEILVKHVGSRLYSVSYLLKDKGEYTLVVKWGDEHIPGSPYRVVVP

Legend:
[1] = target: GST-JRAB-CH + LIM (mouse) (UniProt Q3TN34); assay: pull-down; purified GST-JRAB-C or GST-JRAB-CH + LIM on glutathione-Sepharose beads, incubated with lysates of HEK293 cells expressing GFP-tagged JRAB variants; western blot with anti-GFP; only the target purified
[2] = target: T1, HA-Rab13DA (Q67L) (mouse) (UniProt Q9DD03); assay: co-IP; HEK293 cells co-expressing a GFP-tagged JRAB variant and HA-Rab13DA or HA-filaminA; lysate precipitated with anti-HA antibody (12CA5) on Protein G-Sepharose; western blot with anti-GFP and anti-HA
T1 sequence: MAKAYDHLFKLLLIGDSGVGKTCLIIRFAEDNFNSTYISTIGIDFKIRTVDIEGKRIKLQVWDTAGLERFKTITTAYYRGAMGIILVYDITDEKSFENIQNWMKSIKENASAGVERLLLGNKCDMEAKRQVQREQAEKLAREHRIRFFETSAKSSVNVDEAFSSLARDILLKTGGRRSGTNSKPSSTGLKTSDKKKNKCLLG

[3] = target: GST-JRAB-C (aa 806–1009) (mouse) (UniProt Q3TN34); assay: pull-down; purified GST-JRAB-C or GST-JRAB-CH + LIM on glutathione-Sepharose beads, incubated with lysates of HEK293 cells expressing GFP-tagged JRAB variants; western blot with anti-GFP; only the target purified
HA-filaminA = HA-filaminA (UniProt P21333); assay: co-IP; HEK293 cells co-expressing a GFP-tagged JRAB variant and HA-Rab13DA or HA-filaminA; lysate precipitated with anti-HA antibody (12CA5) on Protein G-Sepharose; western blot with anti-GFP and anti-HA

Substance	binding [1]	binding [2]	binding [3]	binding (HA-filaminA)
GFP-JRAB WT (from UniProt Q3TN34 1-1009)	no binding			
GFP-JRAB-C (M884K/W887K) (from UniProt Q3TN34 806-1009) (domain or fragment)	no binding	binds		
GFP-JRAB-C (Q895K/L898K) (from UniProt Q3TN34 806-1009) (domain or fragment)	no binding	binds		
GFP-JRAB-C WT (from UniProt Q3TN34 806-1009) (domain or fragment)	binds	binds		
GFP-JRAB-CH (aa 1–138) (from UniProt Q3TN34 1-138) (domain or fragment)			no binding	
GFP-JRAB-CH + LIM (L197E/V198E/R200E) (from UniProt Q3TN34 1-260) (domain or fragment)			no binding	binds
GFP-JRAB-CH + LIM (S224E/R228E) (from UniProt Q3TN34 1-260) (domain or fragment)			binds	
GFP-JRAB-CH + LIM (aa 1–260) (from UniProt Q3TN34 1-260) (domain or fragment)			binds	binds
GFP-JRAB-CH + LIMΔZF1 (aa 1–185 + 213–260) (from UniProt Q3TN34 1-260) (domain or fragment)			no binding	
GFP-JRAB-CH + LIMΔZF2 (aa 1–213 + 242–260) (from UniProt Q3TN34 1-260) (domain or fragment)			binds	
GFP-JRAB-LIM (aa 139–260) (from UniProt Q3TN34 139-260) (domain or fragment)			binds	
GFP-JRABΔCC (from UniProt Q3TN34 1-1009)				binds
GFP-JRABΔCT (from UniProt Q3TN34 1-912) (domain or fragment)	no binding			no binding
GFP-JRABΔZF1 (from UniProt Q3TN34 1-1009)	binds			binds
